The whole screen tested about 310,000 compounds, of which about 14,000 (4.5%) showed an effect of 50% or more. Effects have a minus sign here. Some of the results follow.
What follows are molecules tested against human ether-à-go-go-related gene (hERG) potassium channel (human, UniProt Q12809) (assay: primary screen, population patch clamp on CHO cells stably expressing hERG).
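Note: peak tail current of the secondary pulse compared with the same well before compound.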

Sequence of human ether-à-go-go-related gene (hERG) potassium channel (Q12809 whole entry, looked up): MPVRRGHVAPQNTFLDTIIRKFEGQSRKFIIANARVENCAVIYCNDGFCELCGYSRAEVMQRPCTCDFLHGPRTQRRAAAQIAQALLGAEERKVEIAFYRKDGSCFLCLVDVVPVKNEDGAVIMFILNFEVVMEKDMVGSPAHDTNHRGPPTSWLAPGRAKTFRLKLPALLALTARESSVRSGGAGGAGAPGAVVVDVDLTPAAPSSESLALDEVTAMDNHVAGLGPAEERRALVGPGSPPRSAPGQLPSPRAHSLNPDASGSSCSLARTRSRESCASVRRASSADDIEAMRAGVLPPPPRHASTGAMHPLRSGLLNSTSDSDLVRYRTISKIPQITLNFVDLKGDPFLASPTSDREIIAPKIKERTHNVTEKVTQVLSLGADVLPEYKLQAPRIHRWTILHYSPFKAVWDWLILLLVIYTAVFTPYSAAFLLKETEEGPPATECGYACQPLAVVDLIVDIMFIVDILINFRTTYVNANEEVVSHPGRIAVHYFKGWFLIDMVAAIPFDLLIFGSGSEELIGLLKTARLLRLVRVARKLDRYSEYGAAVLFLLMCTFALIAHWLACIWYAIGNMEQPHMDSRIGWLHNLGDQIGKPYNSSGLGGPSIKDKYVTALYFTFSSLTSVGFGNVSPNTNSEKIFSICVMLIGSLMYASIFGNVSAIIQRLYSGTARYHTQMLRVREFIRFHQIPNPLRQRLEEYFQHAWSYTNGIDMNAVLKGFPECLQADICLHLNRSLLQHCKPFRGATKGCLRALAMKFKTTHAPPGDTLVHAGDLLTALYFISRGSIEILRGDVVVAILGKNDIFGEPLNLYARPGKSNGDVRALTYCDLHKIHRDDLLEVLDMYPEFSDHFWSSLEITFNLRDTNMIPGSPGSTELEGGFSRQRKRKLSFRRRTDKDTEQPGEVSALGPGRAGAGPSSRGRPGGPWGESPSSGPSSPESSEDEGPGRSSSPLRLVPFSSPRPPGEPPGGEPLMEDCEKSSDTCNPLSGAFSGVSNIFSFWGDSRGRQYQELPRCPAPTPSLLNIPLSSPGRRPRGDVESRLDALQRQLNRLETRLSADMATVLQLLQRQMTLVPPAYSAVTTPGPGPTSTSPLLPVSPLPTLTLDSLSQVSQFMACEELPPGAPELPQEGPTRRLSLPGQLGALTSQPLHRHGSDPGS

Compared with `COc1ccc(C)cc1NC(=O)COC(=O)c1ccc(OCc2ccc(Cl)cc2Cl)c(OC)c1`, `COc1cc2cc(C)nc(Cc3cccc4ccccc34)c2cc1OC` is lower in “hERG current change (%, negative = inhibition) at 10uM” value: 13.7% for the first, 8.53% for the second.

Compared with `CN(C)S(=O)(=O)c1ccc(N2CCCC2)c(C(=O)NNC(=O)c2ccc(F)cc2)c1`, `CN(C)S(=O)(=O)c1ccc(C(=O)Nc2nc(-c3cccs3)cs2)cc1` is lower in “hERG current change (%, negative = inhibition) at 10uM” value: 15.5% for the first, 4.51% for the second.

First: Cn1c(=O)c(Nc2ccc(O)cc2)c2c3c(cccc31)C(=O)c1ccccc1-2
Second: CCc1c(C)c(C#N)c2nc3ccccc3n2c1Nc1c(C)n(C)n(-c2ccccc2)c1=O
The “hERG current change (%, negative = inhibition) at 10uM” value of the first is lower: -8.15% for the first, -5.49% for the second.

First: CN(C)CCN1C(=O)C(=O)/C(=C(/O)c2ccc(S(=O)(=O)N3CCOCC3)cc2)C1c1ccccc1 (stereo not drawn)
Second: CCOC(=O)C1CCN(C(=O)c2cccc(S(=O)(=O)Nc3ccc(C)cc3C)c2)CC1
The “hERG current change (%, negative = inhibition) at 10uM” value of the first is higher: 7.1% for the first, -35.7% for the second.

Compared with `COc1cc(/C=C2\SC(=S)N(NC(=O)c3ccccc3OC)C2=O)ccc1O`, `COc1ccc(-c2nnn(CC(=O)c3ccccc3)n2)cc1OC` is lower in “hERG current change (%, negative = inhibition) at 10uM” value: 14.5% for the first, -8.29% for the second.

Going from `Cc1ccc(-c2csc3ncnc(N4CCN(c5ccccc5O)CC4)c23)cc1` to `O=C(CSc1ccc2c(c1)OCCO2)N1CCN(c2ccccc2)CC1`, the “hERG current change (%, negative = inhibition) at 10uM” value falls from 25.8% to -12.1%.

Compared with `Cc1ccc2cc(C=C(C#N)C#N)c(N3CCCCC3)nc2c1`, `O=c1nc2n(c3ncccc13)CCCCC2` is lower in “hERG current change (%, negative = inhibition) at 10uM” value: 15.3% for the first, 12.6% for the second.

Going from `Fc1ccccc1-c1n[nH]c(=S)n1Cc1ccccc1` to `O=c1c2ccccc2nnn1COc1cccc2ccccc12`, the “hERG current change (%, negative = inhibition) at 10uM” value falls from 29.8% to 14.6%.

Going from `Cc1ccc(S(=O)(=O)C2(C(=O)Nc3cccnc3)CC2)cc1` to `Cc1ccc(C(=O)Nc2ccc(C(=O)N/N=C/c3cccnc3)cc2)cc1`, the “hERG current change (%, negative = inhibition) at 10uM” value rises from -11.4% to 34.6%.

Compared with `O=C(O)Cc1c(-c2ccccc2Cl)c2cc(Br)ccc2[nH]c1=O`, `Cc1[nH]c2ccccc2c1CCNC(=O)c1ccc2nccnc2c1` is higher in “hERG current change (%, negative = inhibition) at 10uM” value: 5.07% for the first, 13.2% for the second.

Going from `CCc1sc2nc(SCC(=O)Nc3cc(C)on3)n(-c3cccc(OC)c3)c(=O)c2c1C` to `COc1cc([N+](=O)[O-])ccc1NC(=O)CSc1nnc(C)c(C)n1`, the “hERG current change (%, negative = inhibition) at 10uM” value falls from 10.2% to -25.2%.

First: CCOC(=O)C1CCCN(c2ncnc3c2cnn3-c2cccc(C)c2)C1 (stereo not drawn)
Second: Cc1cccc(NC(=O)C2CCCN(S(=O)(=O)c3cccc4nonc34)C2)c1 (stereo not drawn)
The “hERG current change (%, negative = inhibition) at 10uM” value of the first is lower: -33.1% for the first, 25.7% for the second.

Going from `COCCCNc1nc(N)c([N+](=O)[O-])c(Nc2ccccc2OC)n1` to `COCCn1c(SCC(=O)Nc2ccccc2C(F)(F)F)nc2ccccc2c1=O`, the “hERG current change (%, negative = inhibition) at 10uM” value falls from 10.7% to 5.67%.

Going from `O=C(CCc1ccc(O)c(O)c1)NNC(=S)NCCc1ccccc1` to `O=C(CCCCCn1nnc2ccccc2c1=O)N[C@H](C(=O)O)c1ccccc1`, the “hERG current change (%, negative = inhibition) at 10uM” value falls from 7.5% to 6.15%.

First: CC(=O)OC1(c2ccccc2)CCN(C)CC1(C)C.Cl (stereo not drawn)
Second: COc1cccc(NC(=O)CN2CCc3ccccc3C2)c1
The “hERG current change (%, negative = inhibition) at 10uM” value of the first is higher: 35.4% for the first, 10.3% for the second.

Going from `O=C(/C=C/c1ccco1)Nc1ccc2nn(-c3ccccc3)nc2c1` to `CCOC(=O)c1nn(-c2cccc(OC)c2)c(-c2ccccc2)c1C(=O)c1ccccc1`, the “hERG current change (%, negative = inhibition) at 10uM” value falls from 1.48% to -3.85%.

Compared with `COc1cccc(NS(=O)(=O)c2ccc3[nH]cc(C(=O)N(C)Cc4ccco4)c(=O)c3c2)c1`, `COc1ccc2[nH]c(=O)c(CN(Cc3cccs3)C(=S)Nc3ccccc3)cc2c1` is lower in “hERG current change (%, negative = inhibition) at 10uM” value: 19.8% for the first, 16.7% for the second.

First: CCS(=O)(=O)c1cc([N+](=O)[O-])c(Sc2ccccc2N)s1
Second: O=[N+]([O-])c1ccc(-c2csc(Nc3ccccc3)[n+]2Cc2ccccc2)cc1.[Br-]
The “hERG current change (%, negative = inhibition) at 10uM” value of the first is lower: 4.05% for the first, 28.6% for the second.

Going from `C/C(=N\NC(=O)COc1ccc(C#N)cc1)c1ccccc1OC(F)F` to `O=C(NNC(=O)c1ccccc1OCc1ccc(F)cc1)c1ccncc1`, the “hERG current change (%, negative = inhibition) at 10uM” value falls from -12.9% to -24.8%.

First: COc1ccc(/C=N/NC(=O)c2ccncc2)c(C(=O)O)c1OC
Second: O=C(CNC(=O)c1ccccc1F)OCn1nnc2ccccc2c1=O
The “hERG current change (%, negative = inhibition) at 10uM” value of the first is higher: 4.99% for the first, -7.4% for the second.

Going from `Cc1ccc(S(=O)(=O)NCC(=O)OCC(=O)N2N=C(c3ccc(Cl)cc3)CC2c2ccco2)cc1C` (stereo not drawn) to `O=C(Nc1cccc(CCc2ccccn2)c1)c1cc(F)c(F)cc1Cl`, the “hERG current change (%, negative = inhibition) at 10uM” value falls from 4.41% to -23.9%.

First: O=C(COC(=O)/C=C/c1cccc(C(F)(F)F)c1)NCc1ccc(F)cc1
Second: O=C(O)C(Oc1ccc2c(c1)oc(=O)c1ccccc12)c1ccccc1 (stereo not drawn)
The “hERG current change (%, negative = inhibition) at 10uM” value of the first is higher: 23.7% for the first, 20.9% for the second.

First: Cc1cccc(Nc2nnc(SCC(=O)c3ccc(Br)s3)s2)c1C
Second: CC(C)CN(CC(C)C)C(=O)c1cc2c(=O)n3ccccc3nc2s1
The “hERG current change (%, negative = inhibition) at 10uM” value of the first is higher: 21.9% for the first, 7.12% for the second.

First: COc1cccc(-n2c(CN3CCN(C)CC3)nc3ccc([N+](=O)[O-])cc3c2=O)c1
Second: CCOc1ccccc1-n1c(O)c(C=NCCCn2ccnc2)c(=O)[nH]c1=O
The “hERG current change (%, negative = inhibition) at 10uM” value of the first is lower: -33.1% for the first, 13.2% for the second.

Compared with `Nc1ccc2nc(N3CCOCC3)sc2c1`, `CSc1nc2ccc(NC(=O)C3CCCO3)cc2s1` (stereo not drawn) is lower in “hERG current change (%, negative = inhibition) at 10uM” value: 23.5% for the first, -0.62% for the second.

Compared with `CCOc1ccc(NC(=O)COC(=O)C23CC4CC(CC(C4)C2)C3)c([N+](=O)[O-])c1`, `O=[N+]([O-])c1cc(C(F)(F)F)cc([N+](=O)[O-])c1N1CCCNCC1` is lower in “hERG current change (%, negative = inhibition) at 10uM” value: -2.63% for the first, -27% for the second.

Compared with `Cc1nn(C)c(C(=O)NN)c1Cl`, `Cc1nc(SCC(=O)NC2CCS(=O)(=O)C2)c(C#N)c(C)c1C` (stereo not drawn) is lower in “hERG current change (%, negative = inhibition) at 10uM” value: 4.55% for the first, -2.72% for the second.

— article PMC4336329 (PLoS ONE, 2015)
